# Reference: paper PMC4336329 (PLoS ONE, 2015)
# The whole screen tested about 310,000 compounds, of which about 2,200 (0.71%) showed an effect of 50% or more. Effects have a minus sign here. Some of the results follow.
# Molecular target: human ether-à-go-go-related gene (hERG) potassium channel (human, UniProt Q12809)
# Experiment: primary screen, population patch clamp on CHO cells stably expressing hERG
# Sequence of human ether-à-go-go-related gene (hERG) potassium channel (Q12809 whole entry, looked up): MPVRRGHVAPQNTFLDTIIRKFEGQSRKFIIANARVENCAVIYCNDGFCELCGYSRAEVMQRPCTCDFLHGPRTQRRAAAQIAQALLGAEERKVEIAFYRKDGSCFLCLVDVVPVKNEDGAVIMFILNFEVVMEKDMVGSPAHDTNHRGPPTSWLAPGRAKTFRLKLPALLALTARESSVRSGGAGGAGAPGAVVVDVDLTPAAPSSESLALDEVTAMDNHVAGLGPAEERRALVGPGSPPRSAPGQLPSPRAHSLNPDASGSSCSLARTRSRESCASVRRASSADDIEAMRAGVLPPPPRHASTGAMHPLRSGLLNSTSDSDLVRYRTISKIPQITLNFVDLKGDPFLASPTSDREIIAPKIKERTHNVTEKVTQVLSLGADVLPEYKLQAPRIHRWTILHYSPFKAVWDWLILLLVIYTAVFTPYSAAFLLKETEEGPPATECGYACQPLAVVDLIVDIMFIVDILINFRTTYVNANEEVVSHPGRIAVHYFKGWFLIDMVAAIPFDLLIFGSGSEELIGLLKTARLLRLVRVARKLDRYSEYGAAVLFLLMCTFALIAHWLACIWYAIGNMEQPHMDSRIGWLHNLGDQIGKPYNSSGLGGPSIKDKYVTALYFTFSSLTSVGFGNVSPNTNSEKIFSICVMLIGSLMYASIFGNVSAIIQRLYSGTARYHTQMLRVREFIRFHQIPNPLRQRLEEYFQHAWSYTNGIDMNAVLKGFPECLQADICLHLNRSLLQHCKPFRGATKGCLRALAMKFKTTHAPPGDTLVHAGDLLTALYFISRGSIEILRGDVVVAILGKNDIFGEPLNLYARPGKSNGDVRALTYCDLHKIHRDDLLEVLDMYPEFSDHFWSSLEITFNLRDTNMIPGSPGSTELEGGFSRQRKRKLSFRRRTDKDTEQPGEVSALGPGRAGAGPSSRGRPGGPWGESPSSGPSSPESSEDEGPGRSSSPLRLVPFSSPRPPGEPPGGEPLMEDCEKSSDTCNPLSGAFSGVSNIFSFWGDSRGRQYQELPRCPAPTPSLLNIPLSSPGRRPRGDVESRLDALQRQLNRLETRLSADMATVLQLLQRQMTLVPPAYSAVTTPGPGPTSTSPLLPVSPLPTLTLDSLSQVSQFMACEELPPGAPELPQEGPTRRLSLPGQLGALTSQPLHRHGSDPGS
row,SMILES,"hERG current change (%, negative = inhibition) at 1uM"
1,C=CCOC(=O)C1=C[C@@H](c2ccc3c(c2)OCO3)C[C@@H](OCc2ccc(CO)cc2)O1,14.5%
2,COc1ccc(C(=O)NC23CC4CC(CC(C4)C2)C3)cc1OC,14.6%
3,CNC(=S)N1CCn2cccc2C1c1cccnc1 (stereo not shown),7.34%
4,NS(=O)(=O)c1ccc(NNC(=O)c2ccc(F)cc2F)cc1,13.8%
5,O=C1C2C3C=CC(C3)C2C(=O)N1CCCCCCN1C(=O)C2C3C=CC(C3)C2C1=O (stereo not shown),-0.213%
6,COc1ccccc1Nc1nc(N)nc(CN2CCCCC2)n1,-4.26%
7,CCOC(=O)C1CCN(C(=O)COc2ccc3c(c2)OCO3)CC1,13%
8,CC(=O)Nc1cnn(Cc2ccc(Br)cc2)c1,7%
9,O=C(c1ccc(Cl)cc1)N1CCC(O)(CSc2ccccc2)CC1,1.27%
10,Cc1cccc(NC(=O)c2ccccc2NC(=O)C2CCCCC2)c1C,11.3%
11,O=C(COc1cc(Cl)c(Cl)cc1Cl)Nn1cnnc1,-8.45%
12,O=C(CCCCC(=O)NC1CCCC1)NC1CCCC1,13.6%
13,CCN(CC)CCCCCC(=O)Nc1ccccc1C(=O)Nc1ccccc1,-16.5%
14,CC(=O)CC1(OC(C)=O)C(=O)N(C)c2ccccc21 (stereo not shown),3.54%
15,CC(C)Sc1cc(N2CCCC2)nc(-c2ccccc2Cl)n1,8.95%
16,O=C1C2CCc3ccccc3C2N1c1ccccc1 (stereo not shown),5.66%
17,CCOc1ccc(NC(=O)c2c(O)[nH]c(=O)[nH]c2=O)cc1,11%
18,Cc1ccc(C)c(N2C(=O)c3cc(N4CCOCC4)c([N+](=O)[O-])cc3C2=O)c1,1.55%
19,CC1CCN(C(=O)Cn2c3ccc(F)cc3c3nc4n(c(=O)c32)CCCS4)CC1,9.65%
20,CCOC(=O)N1CCN(S(=O)(=O)c2ccc(C(=O)Nc3nnc(CC)o3)cc2)CC1,1.65%
21,COc1ccc(-c2cc3c(=O)n(CC(=O)NCc4ccccc4F)ncn3n2)cc1,11.9%
22,CCOC(=O)C1(CCOc2ccccc2)CCN(Cc2ccc(NC(C)=O)cc2)CC1,-38.6%

row,SMILES,"hERG current change (%, negative = inhibition) at 1uM"
1,C=CCN(Cc1cn(C)nc1-c1cccc(Cl)c1)C1CCS(=O)(=O)C1 (stereo not shown),7.57%
2,COC(=O)c1c(NC(=O)CN2CCN(c3ccccc3OC)CC2)c2cc(C)ccc2n1C,17.1%
3,Cc1ccc(-c2cc(-c3ccccc3)no2)c(O)c1,6.71%
4,C[C@@]12C(=O)N(CCc3c[nH]c4ccccc34)CC(=O)N1[C@H]1c3ccccc3OC[C@@H]1[C@@H]2c1ccccc1,10.3%
5,Nc1n[nH]c(=S)n1-c1ccc(Cl)cc1,14.9%
6,Cc1cc2c(c(=O)o1)C(c1cccs1)C(C#N)=C(N)O2 (stereo not shown),3.76%
7,COc1ccccc1-n1c(C)c2c(OC)cccc(=O)c2c1C,-0.267%
8,Cc1ccc(CN(N=Nc2nonc2N)c2nonc2N)c(C)c1,17.2%
9,COc1nccnc1NS(=O)(=O)c1ccc(N/C=C2\CCCCC2=O)cc1,11.8%
10,CCc1ccc(C2=NN(CCC(=O)NCC3CCCO3)C(=O)CC2)cc1 (stereo not shown),17.6%
11,CCCC[C@@H]1CNC(=S)N1CCc1cccc2ccccc12,16.2%
12,Cc1ccc(C(=O)Oc2ccc(-c3nnco3)cc2)o1,1.7%
13,C=CCNC(=O)C1CCN(C(=O)c2ccc(-c3ccccc3)cc2)CC1,12%
14,NC(=O)NC(=O)C(Nc1ccc(N2CCCCC2)cc1)c1ccccc1 (stereo not shown),13.7%
15,Cc1cccn2c(=O)c(C=O)c(N3CCN(c4ccccc4)CC3)nc12,-3.19%
16,CC(C)C[C@H](NC(=O)c1nc[nH]c1C(=O)NCC(=O)OC(C)(C)C)C(=O)OC(C)(C)C,17%
17,N=C1C(c2nc3ccccc3s2)=C(O)CN1Cc1ccccc1,0.75%
18,COc1ccc(NC(=O)CN(C)C(=O)Cc2ccc(S(=O)(=O)N3CCOCC3)s2)cc1,12.2%
19,CCc1ccc(N2CCN(S(=O)(=O)CC34CCC(CC3=O)C4(C)C)CC2)cc1 (stereo not shown),13.8%
20,COc1cccc(CN2CCNC(=O)C2CC(=O)N(C)CC2CCOCC2)c1OC (stereo not shown),10.6%
21,CN(C)c1ccc(CNCCC(Cc2ccccc2)c2ccco2)cc1 (stereo not shown),-8.96%
22,Cc1nn(S(=O)(=O)c2ccccc2)c(C)c1S(=O)(=O)N1CCOCC1,19.2%

row,SMILES,"hERG current change (%, negative = inhibition) at 1uM"
1,CC(CN1CCC(n2nccc2NC(=O)CCCc2ccccc2)CC1)c1ccccc1 (stereo not shown),3.19%
2,CC(C)CCN1CCN(Cc2cnc(-c3ccccc3)s2)CC1CCO (stereo not shown),-16.6%
3,CN(CCC#N)S(=O)(=O)c1ccc2c(c1)c(=O)n(C)c(=O)n2C,10.5%
4,COc1cccc(C2C(C(=O)Nc3ccccc3)=C(C)N=c3s/c(=C/c4ccc(OCC(=O)O)cc4)c(=O)n32)c1 (stereo not shown),1.32%
5,COc1ccccc1CNC(=O)c1nn(-c2ccc(C)cc2)c(=O)c2c1c1ccccc1n2C,-3.52%
6,CC1Cc2ccccc2N1C(=O)CSc1ccccc1 (stereo not shown),5.02%
7,O=S(=O)(c1ccc(Br)s1)n1cccn1,0.937%
8,O=C(CN1CC=C(c2ccccc2)CC1)NC(=O)NCc1ccccc1,9.11%
9,Cc1ccc(-c2cc[n+](Cc3ccccc3)cc2)cc1.[Cl-],0.359%
10,COc1cc(-c2nc3cnccn3c2Nc2ccc(C(C)C)cc2)ccc1O,22.8%
11,CCC(C)C(=O)Nc1nc(C)c(-c2csc(Nc3ccccc3OC)n2)s1 (stereo not shown),17.1%
12,O=C(NCc1cccc(F)c1)c1cccc(OC2CCN(C(=O)C3CC3)CC2)c1,-5.87%
13,O=C(O)c1cccnc1SC1CC(=O)N(c2ccccc2)C1=O (stereo not shown),19.8%
14,Cc1c(NC(=O)CCC2CCCCC2)cc(C(=O)N2CCOCC2)cc1[N+](=O)[O-],8.15%
15,CN(C)C(CNC(=O)CCc1nc2cc(Cl)ccc2n(Cc2ccccc2)c1=O)c1ccccc1 (stereo not shown),-34.7%
16,CCN(CC(=O)NCc1cccs1)C(=O)c1cccc(S(=O)(=O)NCc2ccccc2)c1,-8.51%
17,Cc1[nH]c2ccccc2c1C(=O)C(=O)N1CCN(c2ccccc2)CC1,10%
18,COc1ccc(OC)c(N(CC(=O)N2CCC(C)CC2)S(=O)(=O)c2ccc(OC)c(OC)c2)c1,3.65%
19,c1cnc(NC2CCCCCC2)nc1,4.67%
20,Nc1ncc2c(n1)-c1ccccc1CC2,9.68%
21,CCCCOc1c(C(=O)Nc2ccccc2)nnn1-c1ccccc1,4.41%
22,Cc1cccc(Cn2c(N3CCCCC3C)nc3c2c(=O)[nH]c(=O)n3C)c1 (stereo not shown),-18%

row,SMILES,"hERG current change (%, negative = inhibition) at 1uM"
1,COc1ccccc1NS(=O)(=O)c1ccc(OC)c(OC)c1,2.13%
2,CCOc1ccc(-c2nc(CN(Cc3ccccc3)C[C@@H]3CCC(=O)N3)c(C)o2)cc1,3.39%
3,CCC1CCCCN1CCCNC(=O)c1ccc2c(c1)N(Cc1ccc(F)cc1)C(=O)c1ccccc1S2=O (stereo not shown),-13.7%
4,CC(C)c1ccc(C2(O)C(=O)Nc3cc(Br)ccc32)c(O)c1 (stereo not shown),18.2%
5,O=C(NCCCN1CCCCC1)c1ccc(CS(=O)c2ccc(F)cc2)o1 (stereo not shown),11.2%
6,CC(C)c1ccc(Cc2nnc(NCCCO)[nH]c2=O)cc1,17.4%
7,CCC12CN3CCN(CC(C3)/C1=N\NC(=O)c1ccc(F)cc1)C2,10.5%
8,Cc1ccc(C(=O)c2cc([N+](=O)[O-])ccc2N2CCCCC2)c(C)c1,8.61%
9,CCC(C)NC(=S)Nc1ccc2nc(N3CCOCC3)cc(C)c2c1 (stereo not shown),5.7%
10,COc1ccc(/C=C2\N=C3CCCCCN3C2=O)cc1OC,14.8%
11,O=C1c2cccnc2C(=O)N1Cc1ccc(F)cc1S(=O)(=O)NCc1ccco1,0.441%
12,CCOc1ccccc1N1CCN(S(=O)(=O)c2ccc(F)c(F)c2)CC1,-7.84%
13,Cc1ccc(C(=O)N2CCN(c3cc4c(cc3[N+](=O)[O-])n(C)c(=O)n4C)CC2)cc1,-18.1%
14,COc1cccc(CNC(=O)CSc2nc3ccc(C)cc3[nH]2)c1,14.2%
15,Cc1ccc(OCCC(=O)OCC(=O)NC(=O)NC2CCCCC2)cc1,14.2%
16,O=[N+]([O-])c1ccc(S(=O)(=O)Nc2ccc(-c3ccc(N4CCCC4)nn3)cc2)cc1,10.7%
17,CCCCn1c(-c2ccccc2)nc2c(=O)n(C)c(=O)[nH]c21,11.9%
18,COc1ccccc1NC(=O)CS(=O)(=O)c1cccc2nsnc12,7.21%
19,O=C(Cn1cc(C(=O)C2CC2)c2ccccc21)Nc1ccc(F)cc1,-6.98%
20,O=C(Cn1cnc2ccccc2c1=O)Nc1ccc(S(=O)(=O)N2CCOCC2)cc1,16.8%
21,CCOC(=O)c1cc(-c2ccc(N3CCOCC3)cc2)nn1-c1ccccc1,-0.567%
22,CS(=O)(=O)N(CC(=O)NN=C1CCCCCC1)c1ccc(Oc2ccccc2)cc1,17.8%
